Source: PubChem BioAssay AID1671193 (National Center for Advancing Translational Sciences (NCATS), 2021)
About 180 (0.12%) of roughly 150,000 compounds were called active. Inconclusive results, whose numbers are uncertain, are shown with a selection of clear calls. The call rests on the fitted dose curve; in most records, active means well fitted cell-killing curve with a large enough effect; inconclusive means small, poorly fitted or top-dose-only effect, or effect the other way; inactive means flat fitted curve, though single readings scatter. Potencies beside an inconclusive call are fits to weak or partial responses and may not hold up.

Assay: GF-AFC viability counterscreen for inhibitors of alpha-synuclein gene (SNCA) expression; further: nearly all actives have a fitted effect of over 30% in size;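 on activity change, negative = cytotoxicity: 0% = DMSO-treated cells and -100% = medium-only wells without cells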
Conditions: HEK-293-SNCA-luc viability, GF-AFC fluorescence, 24 h; activity change, negative = cytotoxicity: at 57.1 µM (top of the series) unless noted
Outline: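 Cytotoxicity counterscreen: after 24 h compound treatment of genome-edited SNCA-luciferase HEK-293 cells, live-cell protease substrate GF-AFC read by fluorescence after 30 min; activity scaled between DMSO (0%) and medium-only (-100%), curves Hill-fitted.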
Potency means the concentration at half of the fitted maximal effect; tags describe the fitted curve by direction and shape.

Structure (SMILES)	activity change, negative = cytotoxicity	Potency
C[C@@H](c1ccccc1)N(C(N)=NC#N)c1cccc2ncccc12	inactive: 9%	–
CCN(CC)C(=O)CC[C@@H]1CNC(=O)[C@@H]2C[C@H](NCc3cccs3)CN12	inactive: 2.35% [at 87.6 µM]	–
COC(=O)c1ccc2oc(=O)c(S(=O)(=O)c3ccc(C)cc3)cc2c1	–	inconclusive: 2.51 µM [rising, partial curve, poor fit]
CC(=O)c1cccc(Nc2c3c(nc4nc(-c5cccs5)nn24)CCCC3)c1	–	inconclusive: 28.2 µM [cytotoxic, single point]
CC(=O)Nc1cccc(-c2nnc(SCC(=O)c3cc([N+](=O)[O-])ccc3Br)o2)c1	–	inconclusive: 28.2 µM [cytotoxic, partial curve]
CC(C)c1nc(N(C)Cc2cc(-c3cccnc3)no2)c2cnn(C)c2n1	inactive: 7.82%	–
Cc1ccc2nc(NCCN)c3ncc(C)n3c2c1	–	inconclusive: 24.1 µM [cytotoxic, partial curve]
C=CC(=O)Nc1cccc(CN2C(=O)N(c3c(Cl)c(OC)cc(OC)c3Cl)Cc3cnc(NCCCCN(CC)CC)nc32)c1	–	inconclusive: 21.2 µM [cytotoxic, partial curve, poor fit]
O=C(c1cccnc1)N1CC(Oc2ccccc2-c2nc(-c3cnccn3)no2)C1	–	inconclusive: 25.1 µM [cytotoxic, single point]
O=C(NC1CC(c2cc(N3CCC(O)C3)ncn2)C1)c1ccoc1 (stereo not given)	inactive: -2.72%	–
COC(=O)c1ccccc1S(=O)(=O)N1CCC(c2cc(-c3cccc(C)c3)n[nH]2)CC1	inactive: -0.216%	–
CC(=O)NC1(C)CCN(Cc2cccc(-c3ccc4c(c3)OCCN4C)c2)C1 (stereo not given)	–	inconclusive: 28.2 µM [cytotoxic, partial curve, poor fit]
CN1CCN(c2ncc3nc(-c4ccc(Cl)cc4)c(=O)n(CCC#N)c3n2)CC1	–	inconclusive: 17.8 µM [rising, partial curve, poor fit]
CCC(=O)Nc1ccccc1-c1nc2ccccc2n(C(CC)C(=O)Nc2cccc(C(C)=O)c2)c1=O (stereo not given)	–	inconclusive: 15.8 µM [cytotoxic, partial curve, poor fit]
CN(C)C(=O)c1ccc2c(c1)NC(C)(CCCCc1ccccc1)CO2 (stereo not given)	inactive: 10.1% [at 87.6 µM]	–
CC(C[N+](C)(C)C)OC(N)=O (stereo not given)	–	inconclusive: 8.91 µM [rising, partial curve, poor fit]
O=C1CC(c2noc(Cc3ccc(F)cc3)n2)CN1c1ccc(F)c(Cl)c1 (stereo not given)	inactive: -16.9%	–
CC1CCN(S(=O)(=O)c2ccc3c(c2)N(CC(=O)N2CCN(c4ccc(Cl)cc4)CC2)C(=O)CO3)CC1	–	inconclusive: 8.91 µM [cytotoxic, partial curve, poor fit]
N#Cc1ccc(C(=O)N2CCCCCCNC(=O)[C@@H]3CCC[C@@H]32)cc1	–	inconclusive: 1.41 µM [rising, full curve, poor fit]
CC(C)S(=O)(=O)c1oc(-c2ccc(F)cc2)nc1S(=O)(=O)c1ccc(F)cc1	–	inconclusive: 8.91 µM [cytotoxic, partial curve, poor fit]

Structure (SMILES)	activity change, negative = cytotoxicity	Potency
Cc1cc(C(F)(F)F)c2c(N)c(C(=O)Nc3c(Cl)cccc3Cl)sc2n1	–	inconclusive: 20 µM [rising, partial curve, poor fit]
Cc1nn(-c2ccccc2)c2c1cc1c(=O)[nH]c(=O)nc-1n2-c1cccc(C(F)(F)F)c1	inconclusive: 30.6%	–
CCCCN(C)C(=O)c1cc(-c2ccc(C)cc2)cn1CC	–	inconclusive: 28.2 µM [cytotoxic, single point]
CCOC(=O)c1ccc(NC(=O)Cn2c(-c3ccc(F)cc3)nc(C)c(CCO)c2=O)cc1	–	inconclusive: 6.31 µM [cytotoxic, partial curve]
COC(=O)CNC(=O)c1nc(-c2cc(Cl)cc(Cl)c2)c2ccccn12	inactive: 8.88%	–
CCCCN(CCCC)C(=O)c1cc2c(=O)n3ccccc3nc2s1	–	inconclusive: 22.4 µM [rising, partial curve, poor fit]
O=C(Nc1ccc(F)c(Cl)c1)c1cnc(-c2ccccc2)nc1-c1ccncc1	inactive: -25.5%	–
Cc1cccc(NC(=O)CSc2nc3ccccc3c3nc(CCn4cncc4C)nn23)c1	–	inconclusive: 35.5 µM [cytotoxic, partial curve, poor fit]
CN(C)C(=O)c1ccc2c(c1)n(Cc1cccc(F)c1)c(=O)c1ccnn12	inactive: -4.84%	–
CN1CCN(C(=O)c2ccnc(-c3nnc4ccc(N(C)c5ccccc5)nn34)c2)CC1	inactive: -6.06% [at 87.6 µM]	–
CCNc1ncc2nc(-c3ccc(OC)cc3)c(=O)n(CCOC)c2n1	–	inconclusive: 7.08 µM [rising, single point]
O=C(CN1C(=O)NC(c2ccc(Cl)cc2)C2=C1COC2=O)Nc1ccc2c(c1)CCC2 (stereo not given)	–	inconclusive: 28.2 µM [cytotoxic, single point]
CCC(=O)Nc1ccc2nnc(-c3ccc(C(=O)Nc4ccc5c(c4)OCCO5)cc3)n2c1	inactive: -22.7%	–
Cc1ccc(C(N)=O)cc1Nc1nccc(-c2cn(C(C)C)c3cnccc23)n1	–	inconclusive: 21.2 µM [cytotoxic, partial curve, poor fit]
COc1ccc(C(=O)N[C@H]2C[C@@H](Cc3cc(COc4ccccc4)on3)C2(C)C)cc1	–	inconclusive: 31.6 µM [cytotoxic, partial curve, poor fit]
COc1ccc(S(=O)(=O)N2CCC(c3nnc(-c4ccccc4C)o3)CC2)c(OC)c1	–	inconclusive: 11.2 µM [cytotoxic, partial curve]
CC(C)CNc1ccc2c(n1)C(C)(C(=O)NC1CC1)CN(Cc1ccccc1)C2 (stereo not given)	–	inconclusive: 28.2 µM [cytotoxic, partial curve, poor fit]
Cc1cc(N2CCNC(c3ccccc3)C2)n2nc(C)c(C)c2n1 (stereo not given)	–	inconclusive: 3.55 µM [cytotoxic, full curve, poor fit]
COCC1CN(C(C)=O)CC12CCN(C(=O)C1CNC1)CC2 (stereo not given)	–	inconclusive: 1.78 µM [rising, full curve, poor fit]
COc1ccc(-c2nnc(C[C@@H]3C[C@@H](C(C)C)[C@H](CN4CCN(CCO)CC4)C=C3C)o2)cc1	–	inconclusive: 12.6 µM [cytotoxic, partial curve]
